# Experimental data from the supplement of paper PMC12217912.
# The other results are listed elsewhere or left out. The full chains were built here from the parent and the listed change. Inactive controls read about 0.05.
# B1: TEV protease; numbered along this chain (parent)
# chain: MGESLFKGPRDYNPISSSICHLTNESDGHTTSLYGIGFGPFIITNKHLFRRNNGTLVVQSLHGVFKVKDTTTLQQHLVDGRDMIIIRMPKDFPPFPQKLKFREPQREERICLVTTNFQTKSMSSMVSDTSCTFPSGDGIFWKHWIQTKDGQCGSPLVSTRDGFIVGIHSASNFTNTNNYFTSVPKNFMELLTNQEAQQWVSGWRLNADSVLWGGHKVFMVKPEEPFQPVKEATQL
# Variants of: B1
# Assay: raw area under fraction-flipped curve 0-4 h after induction (AUC4h, not background-subtracted), DNA-recorder readout of cleavage of the substrate (dimensionless); higher = more cleavage of the substrate by the protease variant
# Conditions: temperature: 34 °C; time window: 0-4 h after rhamnose induction
# Protocol: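 In vivo DNA recorder in E. coli TOP10(DE3) ΔrhaA at 34 °C. Each TEVp single-site mutant (parent TEVp 0) is paired with a single-site variant of the 7-mer TEVs (canonical ENLYFQ|S). The substrate sits between flexible linkers in a Bxb1-sfGFP-TEVs-SsrA fusion, so cleavage stabilises Bxb1 and speeds flipping of a recombination array, read by NGS. The value is the raw area under the fraction-flipped curve over 0-4 h after rhamnose induction (AUC4h), with ≥20 reads per time point. It is not background-subtracted; inactive controls average about 0.047.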
# 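Further: Bxb1 expression induced with 0.2% (w/v) L-rhamnose at OD600 near 0.5, cultures sampled hourly, flipped fraction per protease–substrate barcode pair counted by paired-end Illumina sequencing.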
Variant,area with substrate ENAYFQS,area with substrate ENCYFQS,area with substrate ENEYFQS,area with substrate ENFYFQS,area with substrate ENGYFQS,area with substrate ENHYFQS,area with substrate ENIYFQS,area with substrate ENKYFQS,area with substrate ENMYFQS,area with substrate ENNYFQS,area with substrate ENQYFQS,area with substrate ENYYFQS,area with substrate ENDYFQS,area with substrate ENRYFQS,area with substrate ENSYFQS,area with substrate ENTYFQS,area with substrate ENPYFQS,area with substrate ENVYFQS,area with substrate ENWYFQS
S124T,0.0597,0.0639,0.0545,0.0857,0.0801,0.0549,0.0959,0.0727,0.0703,0.0522,0.062,0.072,,,,,,,
M125E,0.0592,0.0515,0.0675,,0.0606,,,0.0564,,0.058,0.066,,0.0602,0.0523,0.0628,0.0584,,,
M125R,0.0686,0.0634,0.069,0.0675,,,0.106,0.0579,,0.0569,0.0664,0.0594,0.0659,0.0565,0.0553,0.0719,0.0965,0.0653,0.0568
V126E,0.0633,,0.0706,,0.0711,0.0613,,0.0569,0.0893,,0.0618,,0.0656,0.0532,0.0626,0.0668,0.0461,0.0747,
S127M,0.0684,0.0603,0.0608,,0.0591,,0.119,0.076,0.0798,0.0568,0.062,0.0607,0.0625,0.0652,0.0805,0.0668,0.0688,,0.056
D128V,0.0548,0.0718,0.0722,0.066,0.0498,0.0649,,0.0632,,0.0933,0.059,0.0682,0.0645,0.0507,0.0687,0.0724,0.0543,0.0618,
T129V,0.0499,0.0703,0.0637,0.0722,,,,,,0.0606,0.062,,0.0669,,0.0654,,,,
S130I,0.0537,,,,0.0571,,,0.0583,,0.0633,0.065,0.0669,0.0289,,0.0459,,0.0603,,0.0386
S130P,0.038,,,0.0373,,,,0.0469,,,0.025,,0.0399,,0.0607,,,0.0602,
S130W,0.0749,0.0631,0.0608,0.0542,0.0702,0.0308,0.07,,0.0567,0.0622,0.0575,,0.0614,0.0626,0.0624,,,0.0622,0.0573
C131D,0.0699,,,,,0.0654,,,,,0.0655,,,,,0.0638,,0.0691,0.0403
T132Q,0.0547,,0.0599,0.0667,0.0644,0.0656,0.0646,,,0.053,,0.0548,0.0621,,0.0611,,0.123,0.0646,0.0652
S135G,0.0603,0.0587,0.0771,0.0634,0.0625,0.0749,0.0576,,,0.0651,0.0582,0.0578,0.0696,0.0577,0.0557,0.0517,0.0566,0.0619,
S135V,0.0523,0.0614,0.0609,0.0581,0.0649,0.0617,,0.069,0.0498,0.0655,0.0556,,0.0584,,0.0502,0.0449,0.0693,0.0537,
D137Y,0.0675,,0.067,,0.0529,0.0636,,0.0572,0.0528,0.0496,0.0174,0.0538,0.0603,0.122,0.0557,,0.0623,0.0736,0.0563
G138V,0.0144,0.0565,0.0355,0.08,0.048,0.0483,,0.037,,,0.0498,,,,0.0603,,,0.061,
I139P,0.0579,0.0622,,,,,,,,,0.0548,,0.068,,,0.0546,,0.0594,
I139W,0.0555,0.074,0.0535,0.0605,0.0708,,,,0.0691,,0.0689,0.0521,0.0598,0.0609,0.0621,0.0629,,0.0732,
W141C,0.0559,0.0604,0.0515,,0.0581,0.0425,,,,0.0468,0.0479,,0.0509,0.0396,0.0563,0.0638,,0.0615,0.0631
W141R,0.0405,0.0625,0.0623,,,0.0533,,0.0502,,0.0539,0.0531,,0.0563,,0.0617,,0.0601,0.0491,0.052
K142D,0.0557,0.0667,0.0593,0.0579,0.0368,0.0478,0.087,0.078,0.0541,,0.0555,0.0688,0.0688,,0.0732,0.0705,0.0677,0.0884,
K142P,0.0559,0.0647,0.0512,0.0516,0.0599,,0.0707,0.0713,0.0712,0.0521,0.0664,0.0533,0.0408,0.0529,0.0584,0.0538,0.06,0.0674,
K142R,0.0472,0.0655,0.0656,,,0.0625,,0.0754,,0.0459,0.0566,,0.0634,,,0.0599,,0.0757,
H143D,0.0167,,0.0617,,,,,0.0627,,,0.0609,,0.0529,0.0491,0.0587,0.0598,,0.0446,
I145Q,0.0634,0.0596,0.0592,0.0484,0.0544,0.0566,0.0724,,,0.0521,0.0299,0.0573,0.0539,0.0515,0.0456,,,0.0656,0.0474
Q146I,0.069,,,0.0491,0.0795,0.0674,,0.0639,,,0.0576,,0.0523,0.0373,0.0624,,0.0598,0.0616,
T147I,0.0564,0.0651,0.0469,0.0559,0.044,,,,0.0652,0.0586,0.0557,,0.059,0.0528,0.0529,0.0421,0.0731,0.0544,
T147W,0.0658,0.0607,0.0625,0.0603,0.0681,0.0626,0.062,0.0615,,,0.0638,,0.12,0.0651,0.0649,0.0627,0.0692,0.0627,
